# According to publication PMC11352460, “RILP Induces Cholesterol Accumulation in Lysosomes by Inhibiting Endoplasmic Reticulum–Endolysosome Interactions” (Cells, 2024):
# Chains of the proteins cited; added tags and fusions are not shown.
# UniProt Q9H4L5: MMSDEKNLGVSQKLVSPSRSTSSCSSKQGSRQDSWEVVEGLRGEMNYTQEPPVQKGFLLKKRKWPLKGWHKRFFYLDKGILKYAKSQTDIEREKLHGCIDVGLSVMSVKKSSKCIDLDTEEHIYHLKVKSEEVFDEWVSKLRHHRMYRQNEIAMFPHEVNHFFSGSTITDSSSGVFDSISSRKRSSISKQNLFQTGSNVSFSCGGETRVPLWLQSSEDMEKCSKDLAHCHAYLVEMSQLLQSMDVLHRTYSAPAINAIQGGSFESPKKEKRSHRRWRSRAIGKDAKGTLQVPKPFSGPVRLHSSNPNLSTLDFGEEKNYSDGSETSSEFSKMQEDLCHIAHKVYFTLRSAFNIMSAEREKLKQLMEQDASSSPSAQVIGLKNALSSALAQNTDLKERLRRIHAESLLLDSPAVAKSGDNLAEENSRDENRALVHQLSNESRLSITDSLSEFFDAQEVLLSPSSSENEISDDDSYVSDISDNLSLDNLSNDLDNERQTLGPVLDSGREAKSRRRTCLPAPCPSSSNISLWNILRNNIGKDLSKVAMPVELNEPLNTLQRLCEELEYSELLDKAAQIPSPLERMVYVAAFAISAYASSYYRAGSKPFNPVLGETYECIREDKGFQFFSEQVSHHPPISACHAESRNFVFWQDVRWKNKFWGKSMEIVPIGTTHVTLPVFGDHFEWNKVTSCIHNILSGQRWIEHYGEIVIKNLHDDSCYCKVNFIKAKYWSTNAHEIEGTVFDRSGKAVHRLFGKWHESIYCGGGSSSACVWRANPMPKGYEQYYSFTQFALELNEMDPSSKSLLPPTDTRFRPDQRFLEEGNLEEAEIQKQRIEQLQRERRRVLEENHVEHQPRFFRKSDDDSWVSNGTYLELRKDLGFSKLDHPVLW
# Where two headings read alike, the source gives them in different places. No constants are given. Whether binding was seen depends on the method and setting. In cells and extracts the contact can be indirect. Some entries that bind do so weakly or less than the wild type. For part of these data: Sequences can lack the tags named with a protein.
# B1: GFP-ORP7 (protein, UniProt Q9BZF2 1-842)
# chain: MDFQERDPPFLPESAQSSKPSSAQQASELWEVVEEPRVRLGTEGVMPERQEGHLLKKRKWPLKGWHKRYFVLEDGILHYATTRQDITKGKLHGSIDVRLSVMSINKKAQRIDLDTEDNIYHLKIKSQDLFQSWVAQLRAHRLAHRLDMPRGSLPSTAHRKVPGAQLPTAATASALPGLGPREKVSSWLRDSDGLDRCSHELSECQGKLQELHRLLQSLESLHRIPSAPVIPTHQASVTTERPKKGKRTSRMWCTQSFAKDDTIGRVGRLHGSVPNLSRYLESRDSSGTRGLPPTDYAHLQRSFWALAQKVHSSLSSVLAALTMERDQLRDMHQGSELSRMGVSEASTGQRRLHSLSTSSDTTADSFSSLNPEEQEALYMKGRELTPQLSQTSILSLADSHTEFFDACEVLLSASSSENEGSEEEESCTSEITTSLSEEMLDLRGAERCQKGGCVPGRPMGPPRRRCLPAASGPGADVSLWNILRNNIGKDLSKVSMPVQLNEPLNTLQRLCEELEYSSLLDQASRIADPCERMVYIAAFAVSAYSSTYHRAGCKPFNPVLGETYECERPDRGFRFISEQVSHHPPISACHAESENFAFWQDMKWKNKFWGKSLEIVPVGTVNVSLPRFGDHFEWNKVTSCIHNVLSGQRWIEHYGEVLIRNTQDSSCHCKITFCKAKYWSSNVHEVQGAVLSRSGRVLHRLFGKWHEGLYRGPTPGGQCIWKPNSMPPDHERNFGFTQFALELNELTAELKRSLPSTDTRLRPDQRYLEEGNIQAAEAQKRRIEQLQRDRRKVMEENNIVHQARFFRRQTDSSGKEWWVTNNTYWRLRAEPGYGNMDGAVLW
# B2: GFP-ORP1L (OSBP-related protein 1L) (protein, UniProt Q9BXW6-1 1-950)
# chain: MNTEAEQQLLHHARNGNAEEVRQLLETMARNEVIADINCKGRSKSNLGWTPLHLACYFGHRQVVQDLLKAGAEVNVLNDMGDTPLHRAAFTGRKELVMLLLEYNADTTIVNGSGQTAKEVTHAEEIRSMLEAVERTQQRKLEELLLAAAREGKTTELTALLNRPNPPDVNCSDQLGNTPLHCAAYRAHKQCALKLLRSGADPNLKNKNDQKPLDLAQGAEMKHILVGNKVIYKALKRYEGPLWKSSRFFGWRLFWVVLEHGVLSWYRKQPDAVHNIYRQGCKHLTQAVCTVKSTDSCLFFIKCFDDTIHGFRVPKNSLQQSREDWLEAIEEHSAYSTHYCSQDQLTDEEEEDTVSAADLKKSLEKAQSCQQRLDREISNFLKMIKECDMAKEMLPSFLQKVEVVSEASRETCVALTDCLNLFTKQEGVRNFKLEQEQEKNKILSEALETLATEHHELEQSLVKGSPPASILSEDEFYDALSDSESERSLSRLEAVTARSFEEEGEHLGSRKHRMSEEKDCGGGDALSNGIKKHRTSLPSPMFSRNDFSIWSILRKCIGMELSKITMPVIFNEPLSFLQRLTEYMEHTYLIHKASSLSDPVERMQCVAAFAVSAVASQWERTGKPFNPLLGETYELVRDDLGFRLISEQVSHHPPISAFHAEGLNNDFIFHGSIYPKLKFWGKSVEAEPKGTITLELLEHNEAYTWTNPTCCVHNIIVGKLWIEQYGNVEIINHKTGDKCVLNFKPCGLFGKELHKVEGYIQDKSKKKLCALYGKWTECLYSVDPATFDAYKKNDKKNTEEKKNSKQMSTSEELDEMPVPDSESVFIIPGSVLLWRIAPRPPNSAQMYNFTSFAMVLNEVDKDMESVIPKTDCRLRPDIRAMENGEIDQASEEKKRLEEKQRAARKNRSKSEEDWKTRWFHQGPNPYNGAQDWIYSGSYWDRNYFNLPDIY
# B3: myc-RILP, Q96NA2 1-401 (protein)
# chain: MEPRRAAPGVPGWGSREAAGSASAAELVYHLAGALGTELQDLARRFGPEAAAGLVPLVVRALELLEQAAVGPAPDSLQVSAQPAEQELRRLREENERLRRELRAGPQEERALLRQLKEVTDRQRDELRAHNRDLRQRGQETEALQEQLQRLLLVNAELRHKLAAMQTQLRAAQDRERERQQPGEAATPQAKERARGQAGRPGHQHGQEPEWATAGAGAPGNPEDPAEAAQQLGRPSEAGQCRFSREEFEQILQERNELKAKVFLLKEELAYFQRELLTDHRVPGLLLEAMKVAVRKQRKKIKAKMLGTPEEAESSEDEAGPWILLSDDKGDHPPPPESKIQSFFGLWYRGKAESSEDETSSPAPSKLGGEEEAQPQSPAPDPPCSALHEHLCLGASAAPEA
# How the values were obtained:
# [1] = target: GST-RILP (Rab7-interacting lysosomal protein) (UniProt Q96NA2); test: pull-down; GST-fusion protein coupled to GST-Sepharose 4B resin incubated with HEK-293T lysate containing the GFP-tagged protein, 4 °C overnight; lysis buffer 20 mM HEPES pH 7.4, 1% Triton X-100, 100 mM NaCl, 5 mM MgCl2; washes with 500, 300 and 100 mM NaCl; Western blot with GFP antibody; only the target purified
# GST-VAPa(1-225aa) [2] = target: T1, GST-VAPa(1-225aa) (UniProt Q9P0L0); test: as above
# T1 sequence: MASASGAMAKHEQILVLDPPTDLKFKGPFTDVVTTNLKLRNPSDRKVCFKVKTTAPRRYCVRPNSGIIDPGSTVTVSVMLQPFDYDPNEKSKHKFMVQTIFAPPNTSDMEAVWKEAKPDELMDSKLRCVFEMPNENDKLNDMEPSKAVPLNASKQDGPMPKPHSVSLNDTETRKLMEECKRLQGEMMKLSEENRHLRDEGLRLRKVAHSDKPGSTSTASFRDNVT
# [3] = target: GST-RILP (Rab7-interacting lysosomal protein) (UniProt Q96NA2); test: as above; remark: listed apart in the source
# GST-VAPa(1-225aa) [4] = target: T1, GST-VAPa(1-225aa); test: pull-down; GST-VAPa(1-225aa) on beads with lysates of Hela cells co-transfected with GFP-ORP1L and increasing amounts of myc-RILP; Western blot; only the target purified
# GST-RILP(1-198aa) = GST-RILP(1-198aa) (UniProt Q96NA2); test: pull-down; GST-fusion protein coupled to GST-Sepharose 4B resin incubated with HEK-293T lysate containing the GFP-tagged protein, 4 °C overnight; lysis buffer 20 mM HEPES pH 7.4, 1% Triton X-100, 100 mM NaCl, 5 mM MgCl2; washes with 500, 300 and 100 mM NaCl; Western blot with GFP antibody; only the target purified
# [5] = target: T2, GFP-ORP1L (OSBP-related protein 1L), Q9BXW6; test: pull-down; same experiment as a2, for the pair myc-RILP and GFP-ORP1L, both in the Hela lysate: competition read out as loss of ORP1L from GST-VAPa(1-225aa); settings: remark: other sources report otherwise
# T2 chain: B2 chain
molecule,measurement,setting,value
GFP-ORP3 (from UniProt Q9H4L5 1-887),binding,[1],binds
B1,binding,GST-VAPa(1-225aa) [2],binds
same,binding,[3],binds
B2,binding,GST-VAPa(1-225aa) [4],binds
same,binding,GST-RILP(1-198aa),binds
B3,binding,[5],binds
